Over roughly 33,000 sequences, “E-score (-0.5 to 0.5)” has its median near -0.054; the highest 2% begin near 0.35. The list shows a part of the results.
These sequences were tested against T1, Stb5 (UniProt P38699) (assay: PBM E-score (8-mer binding enrichment) (E-score (-0.5 to 0.5)); higher = stronger / more preferred TF binding; most listed sequences are background and not binding sites). Conditions: protein concentration: 200 nM; construct: GST-full length.
T1 sequence: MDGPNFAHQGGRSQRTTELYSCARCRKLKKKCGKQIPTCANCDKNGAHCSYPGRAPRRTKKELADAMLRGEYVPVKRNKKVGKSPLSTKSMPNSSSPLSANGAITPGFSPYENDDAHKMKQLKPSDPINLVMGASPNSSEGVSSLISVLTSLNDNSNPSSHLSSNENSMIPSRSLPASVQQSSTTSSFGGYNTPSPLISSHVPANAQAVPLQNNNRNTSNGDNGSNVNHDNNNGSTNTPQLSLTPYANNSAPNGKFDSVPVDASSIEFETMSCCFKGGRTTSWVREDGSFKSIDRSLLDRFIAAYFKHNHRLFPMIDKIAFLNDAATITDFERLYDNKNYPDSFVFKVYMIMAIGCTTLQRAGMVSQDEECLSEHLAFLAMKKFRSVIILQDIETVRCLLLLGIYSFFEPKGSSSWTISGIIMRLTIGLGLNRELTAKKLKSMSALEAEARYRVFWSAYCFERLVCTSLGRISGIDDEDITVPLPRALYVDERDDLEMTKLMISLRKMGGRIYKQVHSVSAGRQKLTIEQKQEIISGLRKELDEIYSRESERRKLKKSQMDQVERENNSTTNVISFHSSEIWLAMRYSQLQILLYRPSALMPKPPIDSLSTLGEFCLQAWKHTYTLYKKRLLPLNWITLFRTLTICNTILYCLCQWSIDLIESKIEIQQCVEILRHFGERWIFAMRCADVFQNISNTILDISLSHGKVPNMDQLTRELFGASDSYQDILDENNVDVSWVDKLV
Protocol: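 Universal 'all 10-mer' protein binding microarrays (Agilent AMADID 015681) probed with GST-tagged S. cerevisiae TFs (full-length or DBD) made by in vitro transcription/translation (PURExpress), about 100-200 nM. Bound TF was detected with fluorescent anti-GST. Each ungapped 8-mer (which stands for itself and its reverse complement) is scored by the PBM enrichment score (E-score), a modified Wilcoxon-Mann-Whitney statistic from -0.5 to +0.5, computed with the Universal PBM Analysis Suite. Scale: above 0.35 generally sequence-specific binding.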

| Sequence | PBM E-score |
| --- | --- |
| TAAGTGGA | -0.0008 |
| AGTCGCTG | -0.225 |
| CCGGAAGC | 0.138 |
| ATCTCCAA | -0.0741 |
| ACAGTAAG | -0.239 |
| CGCTCGTA | -0.0378 |
| CTACAATA | -0.061 |
| TAACTGCA | -0.27 |
| AAGTGAGA | -0.106 |
| TAGCGGGA | 0.194 |
| GCTACAAC | -0.0936 |
| ATCATCAA | -0.0837 |
| ATTCTCTC | -0.173 |
| TCGATGAA | -0.0714 |
| CCTCCGGA | 0.219 |
| GTGTTTTA | 0.164 |
| AACGAGGT | -0.0464 |
| AACACCAG | 0.011 |
| CCGAGCAG | 0.05 |
| ATTAACCA | -0.0124 |
| AACTGGTA | -0.077 |
| TTTCAAAA | -0.0616 |
| TAGGGGGA | -0.0977 |
| GTTCCGAA | 0.112 |
| AGTACACT | -0.275 |

| Sequence | PBM E-score |
| --- | --- |
| TCAGCAGA | -0.329 |
| CTATATTC | -0.0643 |
| CTAATGGA | -0.00769 |
| ACGAGGCT | -0.0356 |
| CCCCGATC | 0.374 |
| GGGCATGA | -0.083 |
| CACCGCCG | 0.405 |
| CAATATGA | -0.108 |
| ATACCCTA | -0.222 |
| CGTTGCAA | -0.109 |
| AATCTCTA | -0.302 |
| GCTAAGAC | 0.1 |
| CTGTATCC | -0.00766 |
| CCGTTGGC | 0.212 |
| ATAAACGC | 0.121 |
| CAAGCTCG | -0.0302 |
| GTAGCCCA | -0.126 |
| GCAGGGGA | -0.168 |
| CGGAACGC | 0.0718 |
| AGCCTGGC | -0.0727 |
| GCTATAGA | -0.0336 |
| CGGACCTC | 0.261 |
| CCGGAGTC | 0.279 |
| CGCTTGGC | 0.0377 |
| CGAGACTA | -0.0587 |

| Sequence | PBM E-score |
| --- | --- |
| AGTTTAAC | 0.066 |
| GATGCGGC | 0.0604 |
| AGTAGACC | -0.104 |
| CTGCCTGC | -0.0567 |
| CACCCCTA | -0.0642 |
| GGGGCCAA | -0.0242 |
| AGAGCTGG | -0.0753 |
| GGAGCCCA | -0.263 |
| GACTGTAA | -0.0228 |
| GCCTTTGA | -0.169 |
| ACTTAGGA | -0.225 |
| GTAGTTAA | 0.0894 |
| AGCTCCGA | 0.405 |
| CCGCTAAG | 0.219 |
| CGGGCCCG | 0.284 |
| AGTAGATG | -0.164 |
| CAGGCCAC | -0.187 |
| CAGACGCG | -0.0888 |
| GGGAGTAA | 0.244 |
| GTGACACA | 0.104 |
| AGGGGTAC | -0.177 |
| CTATTCAA | -0.201 |
| ACCGGGAA | 0.261 |
| AGCACGCG | -0.0899 |
| ACTCATTG | -0.149 |

| Sequence | PBM E-score |
| --- | --- |
| AGCTTGGC | -0.123 |
| CTAGGGCC | 0.0792 |
| CCGATCAC | 0.277 |
| TAAACCGA | 0.047 |
| CGTGGGGA | -0.119 |
| AGGGCCAT | -0.213 |
| AGCCCTGC | -0.106 |
| GTTCGTCA | -0.057 |
| AACGGCTT | 0.106 |
| CTCATGTC | -0.066 |
| GCAGGTGA | -0.157 |
| AGCCATGG | -0.342 |
| ATCGGTTC | 0.192 |
| AGCCTTCC | -0.237 |
| TACGGCTA | -0.0852 |
| CAGATGAG | -0.31 |
| CGGAACTC | 0.0793 |
| CCAGCCGA | -0.223 |
| ACTATCAA | 0.025 |
| ACAAGCGG | 0.323 |
| ATCATGAC | -0.131 |
| ATGAGAAC | -0.109 |
| ACCGTAAT | -0.0274 |
| GATGTCAC | -0.0653 |
| AATAGACC | 0.0964 |

| Sequence | PBM E-score |
| --- | --- |
| AAGATCTT | -0.205 |
| CTCTGCAG | -0.158 |
| CTTTTTAA | -0.102 |
| CGGCGTCA | 0.384 |
| CAGGACTA | -0.141 |
| CGATTTCA | -0.0652 |
| CAACTATG | -0.144 |
| CCCTTGAC | -0.238 |
| CGTTTCCA | -0.0611 |
| CTCGTTTA | -0.122 |
| CCTAAAGA | 0.119 |
| ACGAACAC | 0.0783 |
| AGTGGCTA | -0.222 |
| GAGATTCA | -0.152 |
| TGGAAACA | -0.167 |
| GTAATCGA | -0.0672 |
| TATTATCA | 0.121 |
| CAATGACG | 0.0473 |
| AGGCCTTA | -0.0641 |
| ATGTAAGC | -0.0109 |
| TCTAATCA | 0.031 |
| CATGCTTA | -0.058 |
| AAGCGTCT | -0.169 |
| CTACGTAG | 0.0194 |
| GGATTTTA | 0.203 |

| Sequence | PBM E-score |
| --- | --- |
| AAATCCTG | -0.143 |
| CACCGTAC | 0.213 |
| GAGATCGC | -0.0831 |
| ACGGTGAG | 0.141 |
| CCATGGTA | -0.0299 |
| CATCCTGA | -0.194 |
| CCCCCAAA | -0.276 |
| CCTCTGAG | -0.141 |
| TACCGCAA | 0.225 |
| ACACGTTG | -0.333 |
| ACATCCCC | 0.111 |
| ATGCCCCG | 0.269 |
| AGAAACGA | -0.253 |
| AAGCGGAG | 0.252 |
| CTCCGTAA | 0.269 |
| CGCACAGA | -0.182 |
| CGCGACAG | -0.0215 |
| CCCATCTC | -0.175 |
| TGAACTAA | -0.153 |
| AATGTACC | 0.00655 |
| CGTTTCCC | 0.12 |
| CCTACTCA | 0.0235 |
| GGATAACC | 0.101 |
| CTCGAGAG | -0.254 |
| AAGTTATC | -0.116 |

| Sequence | PBM E-score |
| --- | --- |
| ACAGTGAA | -0.147 |
| GACCTGAC | -0.335 |
| AGAGGGCG | -0.0169 |
| GTAGGAGA | -0.104 |
| GGCATAAA | 0.247 |
| CCCAGTAG | -0.128 |
| AAAGACAG | -0.00486 |
| AGCCCCTA | -0.138 |
| GAGGCCCA | -0.151 |
| GACGACCC | -0.114 |
| GCATCTAC | 0.00096 |
| CTGCTCTC | -0.121 |
| CGCCGTAC | 0.194 |
| ACTCCGAG | 0.202 |
| GAGGGTAA | -0.00858 |
| ACCTCGGG | 0.173 |
| ACTCAATG | -0.0318 |
| ACGATTCT | -0.124 |
| GTTTTATA | 0.254 |
| ACAAAACC | -0.0967 |
| GACAGATC | 0.0557 |
| CATTTATC | -0.117 |
